In the RNAGym collection of RNA variant scans (doi:10.7554/elife.90254):
The source gives no read counts; variants with many changes may rest on few reads.

B1: LINE1-mini (parent)
chain: GGCAGAGCUCAACACAGCGUGGCAAAGUGGCUGUGGCUAGACUGCC

Variants of: B1
Experiment: self-cleavage, relative activity (ratio to wild type); higher = more cleavage; in vitro, sequencing; the parent is a self-cleaving ribozyme
With GGCAGAGCUAAAGACAGCGAGGCAAAGUGGCUGUGGCUAGACUGCC [C10A C13G U20A] the self-cleavage was 0.05.
With UGCAGAGCACAAUACAGCGUGGUAAAGUGGCUGUGGCUAGACUGCC [G1U U9A C13U C23U] the self-cleavage was 0.02.
Variant GCCAGAGCUCAAUACAGCGUGGCAUAAUGGCUGUGGCUAGACUGCC [G2C C13U A25U G27A] has a self-cleavage of 0.27.
GGCUGAGCUCAACACAGCGUGGCAAAGUGGCCAGAGCUAGACUGCC [A4U U32C G33A U34G G35A] gave a self-cleavage of 0.04.
For GGCAGAGCUCAACCCAGCGUGGCAAAGUGGCUGUGUCUAGACUGCU [A14C G36U C46U], the self-cleavage was 0.04.
GGCAGAGCUCAACACAGCGUGACAAAUUGGCUGUAGCUAGACUGCC [G22A G27U G35A] showed a self-cleavage of 0.11.
For GGAAGAGCUCAACACAGCGUGGCAAAGUGGCUGUGGCUAGAGCGCC [C3A C42G U43C], the self-cleavage was 0.02.
Variant GGCAGAGCGCAACACAUCGUGGCAAAGUGGCUGUGGCUAGACUACC [U9G G17U G44A] has a self-cleavage of 0.06.
GGCAGAACUCAACACGGCGUGGCAAACUGGCUGUGGCUAGACUGCC [G7A A16G G27C] gave a self-cleavage of 0.09.
In the case of GGCCCAGCUCAACACAGCGUGACAAAGUGGCUGUGGCUAGACUGCC [A4C G5C G22A], the self-cleavage is reported as 0.06.
Work on GGCAGACCUCAAAAGAGCGUUUCAAAGUGGCUGUGGCUAGUCUGUC [G7C C13A C15G G21U G22U A41U C45U] yielded a self-cleavage of 0.06.
Variant GGCAGAGCUCAACACAGCGUGGCAAAGUGGAUGUGGCUAGAGUACC [C31A C42G G44A] has a self-cleavage of 0.05.
Variant GGCACAGCUCAACACAGCGUGGCAACGCGGCUGUGGGUAGACUGCC [G5C A26C U28C C37G] has a self-cleavage of 0.02.
GGCAGAGCUCAGCAACGCGUGGCAAAGUGGUUGAGGCUAGACUGCC [A12G C15A A16C C31U U34A] showed a self-cleavage of 0.01.
GGCAUAGCUCAAUAAAGGGUUGCAAAGUGGCUGUGGCUAGACUGCC [G5U C13U C15A C18G G21U] gave a self-cleavage of 0.07.
GGCAGAGCUCAACACAGCGUGGCAAAGUGGAUAUGGCUAGACUGCU [C31A G33A C46U] gave a self-cleavage of 0.07.
In the case of GGCAACGCUCAACACAGCUUGGCAAAGUGGCUGUGGGUAGACUGUC [G5A A6C G19U C37G C45U], the self-cleavage is reported as 0.02.
With GGCAGAGCUCAUCACAGCGUGGCAAAGUGCCUGUGGCUAGACUGAC [A12U G30C C45A] the self-cleavage was 0.02.
With GGCAGAGCUCUACAAAGCGUGGCAAAGUGGCUGAGGCUAGACUGCG [A11U C15A U34A C46G] the self-cleavage was 0.02.
In the case of GGAAGAGCUCAACACAGCGUGGCAUGGUGGCUGUCGCUAGACUGCC [C3A A25U A26G G35C], the self-cleavage is reported as 0.14.
GGCAAAACUCAACACAGCGUGGCAAAGCGGCUGUGGCUAGACUGCC [G5A G7A U28C] gave a self-cleavage of 0.17.
In the case of GGCAGAGCUCAGCACAGCGUGGCCAUGUGGCUGUGGCUAGACUGCC [A12G A24C A26U], the self-cleavage is reported as 0.02.
Variant GACAGAGCUCAAAACAGCGUGGCAAAGUGGCUGUGGCUAGACUGAC [G2A C13A C45A] has a self-cleavage of 0.25.
GGCAGAACCCAACACAGCGUGGCAAAGCGGCUGUGGCCAGACUGCC [G7A U9C U28C U38C] showed a self-cleavage of 0.02.
For GGCAGAGCUCAACACAGCGUUGCAAAGUGGCUGUUGCUAGACUGCA [G21U G35U C46A], the self-cleavage was 0.08.
With GGCAGAGCUCAAAACAGCGUGGCACAGUGGCUGUGACUAGACUGCC [C13A A25C G36A] the self-cleavage was 0.02.
With GGCAGAGCUCAACCCAGCGAGGCAAAGUGGCUGUGGCUAGAAUGCC [A14C U20A C42A] the self-cleavage was 0.05.
With GGCAGAGCUCAACACGGCGUGGCAAAGUGGCUAUGGCUAGACAGCU [A16G G33A U43A C46U] the self-cleavage was 0.01.
In the case of GGCUGAGCUCAACACAGCGUGGCAAAUUGGCUGUGGCUAGACUUCC [A4U G27U G44U], the self-cleavage is reported as 0.13.
GGCAGAGCUCAACACAGCGUGACAAAGAGGCUGUGUCUAGACUGCC [G22A U28A G36U] showed a self-cleavage of 0.04.
In the case of GGCAGCGCUUAGCAGAGCGUGGCAAAGUGGCUGUGGCUAGACUGCC [A6C C10U A12G C15G], the self-cleavage is reported as 0.03.
GGCAGAGCUCAACACACCGUGGCAAAGUAGCUGUGGCUAGACUUCC [G17C G29A G44U] gave a self-cleavage of 0.08.
GGUAGAGCUCAACACAGCGUGACAAAGUUGCUGUGGCUAGACUGCC [C3U G22A G29U] showed a self-cleavage of 1.14.
For AGCAGAGCUCACCACACCGUCUCAAAGUGGCUGUGGCUAGACUGCC [G1A A12C G17C G21C G22U], the self-cleavage was 0.04.
Variant GGCAGCGCUCAACACAGCGUGGCAAACUGGCUGUGGUUAGACUGCC [A6C G27C C37U] has a self-cleavage of 0.03.
For GGGAGAGCUCACCACAGCAUGCCAAAGUGGCUGUGGCUAGACUGAC [C3G A12C G19A G22C C45A], the self-cleavage was 0.
In the case of GGCAGAGCUCAACACCGCCUGGCAAAGUGGCUGUGUCUAGACUGUC [A16C G19C G36U C45U], the self-cleavage is reported as 0.03.
Variant GGCACAGCUCAACACAGCGUGGCAAAGUGGCUGGGGCUCGAAUGCC [G5C U34G A39C C42A] has a self-cleavage of 0.03.
GGCAGAGCUCUAAACAUCGUGGCAAAGUGGAUGUGGGUAGAAUGCC [A11U C13A G17U C31A C37G C42A] gave a self-cleavage of 0.01.
In the case of GGCCGAGCUCGACACAGCGUGGCUAAGUGGCUCUGGCUAGACUGCC [A4C A11G A24U G33C], the self-cleavage is reported as 0.02.
With GGCAGAGCUCAACACAGCGUUGUAAAGUGGAUGUGACUAGACUGCC [G21U C23U C31A G36A] the self-cleavage was 0.21.
In the case of UGCGGAGCUCAACACAGCGUGGCAAAGCGGCUGUGGUUAGACUGCC [G1U A4G U28C C37U], the self-cleavage is reported as 0.01.
In the case of GGCAGAGCUCAACACAGCGUAGAAAAGUGGCAGUGGCUAGACUGCC [G21A C23A U32A], the self-cleavage is reported as 0.14.
With GGCAUAGCUCAAACCAGCGUGGCAACGUGGCUGUGGCUAGACCGCC [G5U C13A A14C A26C U43C] the self-cleavage was 0.01.
In the case of GGUAGAGCCCAACACAGCGUGGCAAAGUGGCUCUGUCUAAACUGCC [C3U U9C G33C G36U G40A], the self-cleavage is reported as 0.04.
Work on GGCAGAGCGCAAUACAGCGUGGCAAGGUGGCUGUGGCUAGACUGCC [U9G C13U A26G] yielded a self-cleavage of 0.27.
GGCCGCCCUCCACACAGCGUGGCAAAGUGGCUGAGGCUAGACUCUC [A4C A6C G7C A11C U34A G44C C45U] showed a self-cleavage of 0.
Variant GGCAGAGCUCAUCACAUCGUGGGAAAGUGGCUGUGGCUAGACUGCC [A12U G17U C23G] has a self-cleavage of 0.07.
For GGCAGAGCUCAAUACAGCGUGGCAAAGCGGCUGUGGCUAGUCUGCC [C13U U28C A41U], the self-cleavage was 0.14.
GGUAUAGCUCAACACAGCGUGGCAAAGUGGCUGUGGCUAGAAUGCC [C3U G5U C42A] gave a self-cleavage of 0.08.
Work on GGCAAAGCUGAACACAGCGUGGCAUAGUGGCUGUGGCUAGACUGCC [G5A C10G A25U] yielded a self-cleavage of 0.02.
GGCAGAGCUCAACACAGCGUGGCGAAGUGGGUGUGGCUAGUCUGCC [A24G C31G A41U] showed a self-cleavage of 0.01.
With GGCAGAGGUCAACACACGGUGGCAAAGUGGCUGUGGCCAGACUGCC [C8G G17C C18G U38C] the self-cleavage was 0.03.
For GACAGAGCUCAACAUAGCGUUGCAAAGUGUUUGUGGCUAGACUGCC [G2A C15U G21U G30U C31U], the self-cleavage was 0.08.
GGCAGAGCUGAACACAGCGUGACAAAGUGGCUGUGGCUAGACCGCC [C10G G22A U43C] gave a self-cleavage of 0.02.
For GGAAGAGCUCAGCACAGCGUGGCAAAAUGGCUGUGGCUAGACUGCC [C3A A12G G27A], the self-cleavage was 0.25.
